From the supplement of paper PMC11417369
The list shows a part of the results.

Test system: PF3D7_0420300 AP2 domain 1 (GST-tagged)
Assay: gcPBM binding intensity (ln(normalized median fluorescence intensity)); higher = stronger DNA binding
How it was run: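 The binding buffer was 1× PBS containing 1% milk, 0.2 mg/ml BSA, 0.5% salmon testes DNA and 0.03% Triton X-100. In it, GST-tagged P. falciparum DNA-binding domains expressed in E. coli were applied for 1 h to an Agilent 4 × 180k array of primer-extended double-stranded 36-bp intergenic genomic probes plus negative controls. Binding intensity, read with Alexa488 anti-GST antibody and a 488 nm scan, is the highest Masliner-normalised natural-log median intensity across replicate spots of either probe orientation.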

Sequence | gcPBM binding intensity (ln)
ATATAAGAAAAGCACACACACACAAAAAAAAAAAAA [CACACA_site2827] | 10.1
ATTAAAAAAAATATATATGTATAAAACAAGCAAAAT [XGTACX_negctrl_site474] | 9.69
AACATTATATATTGCAGTACTCCCATATGTTGATAA [XGTACX_site3119] | 9.26
ATATATATATATATATGTACACATAAAAAGAAAGAA [XGTACX_site1603] | 9.58
TTTAGTTGTGAGAATTGTACATATTTTCCTTTTACC [XGTACX_site7291] | 9.2
TATATACCTATATACACACACATATATTATAGATAT [CACACA_site6266] | 9.82
TATATATATGAACAATGTACGTATAATATTTTTATT [XGTACX_site7561] | 9.25
GATCTATACTATAATACACACATTTGATGAATGTAA [CACACA_site6163] | 9.34
AAAAAAATTAAAAATTAAAATTAAAAATAATATATA [GTGCAC_negctrl_site466] | 8.97
AATGTATAAATCCATACACACATAAATTTTAATAAT [CACACA_site2363] | 9.53
TAATTTCTTTAGGGGGTGCTTTTATAGTTTTTATTA | 10.1
TTCATAAAATGTGTCTGTACGTAAATGTATTACACT [XGTACX_site3179] | 9.22
CTGTCTGCAGATATGGTGCATTTGTAAGATCTTACA [GTGCAC_site9870] | 9.13
TTTATATTTATGATGGGTACACAAAATTTTACCCAT [XGTACX_site1504] | 8.93
ATATATATATATATATGTACATATGTTTGTTTCCGC [XGTACX_site5167] | 9.53
TTTTTTTTCATTTTATGTACACATAATTTAATATAT [XGTACX_site5768] | 9.34
CATACATACATACATACATGCATACATACATACATA [TGCATGCA_site218] | 9.45
CATAATTTAAAAAAGGTGCAAAATGGATAATATATA [GTGCAC_site9657] | 9.39
AAAAAGTGACTCCTTACACACTTTACATAATTTAGG [CACACA_site8176] | 9.42

Sequence | gcPBM binding intensity (ln)
ATATACATATATATATGTACTTATTTATTTATTTAT [XGTACX_site2532] | 9.36
GCAATTTTTTTTAAGAGTACTAATATATTATAGTGG [XGTACX_site7316] | 8.95
TTTTTTTAATAGTGTGCACACAATATACAGAAAAAA [CACACA_site8399] | 9.51
TAATTATATATATACACACACATACAGACAAATAAA [CACACA_site3412] | 10.1
GAAATTTGTTATTGCACACAAATTTTTCTTTTTTTA [CACACA_site2339] | 9.34
TCCTTTTTGAAATGTTGTACTTTTTTTATCTTTCAT [XGTACX_site953] | 9.48
TACCATATTTCTTCAAGTACGCATTATGTTAAAAAG [XGTACX_site345] | 9.06
TACATATATTTTTATACATGCATAACTTAGGACTTT [TGCATGCA_site113] | 9.05
ATATTTATATATATCATACACACTAATATGTATATT [CACACA_site3409] | 9.39
ATATATATATATAATTGTACATATAATATAATATTA [XGTACX_site5216] | 9.14
AACACATGCTTGGTCACACACGTATGCATATTTAAA [CACACA_site5206] | 9.52
AATATGTTATAAATATGTTATAAATAATAAATAAAT [GTGCAC_negctrl_site135] | 9.17
ATATATATTATATATAGTACTTTTTTGCGCAAATAT [XGTACX_site6849] | 9.15
TAAAAAAAAAAAAAAAGTACACACATACATATAAAT [XGTACX_site3752] | 9.81
ATTTTTTTTTTTTTATGTACATATAGGTGCAAATCA [XGTACX_site6748] | 8.95
ACAATGTCATTTGCTAGTACGCATATTGGTTGTAAA [XGTACX_site8924] | 9.15
TATTTTTTTTTTTTTTTTTTTTTAAAACATATCAAT [CACACA_negctrl_site925] | 8.93
ATTATGTGTCCACATGTAAGCTATCTTACTTATATA [CACACA_negctrl_site1227] | 9.29
CATATTTGTGGACACACACACATATTTATATATATA [CACACA_site5887] | 9.75

Sequence | gcPBM binding intensity (ln)
ATAGTTACACAATGGTGTACAAGTCAATATATTTCT [XGTACX_site4614] | 9.19
TACAAAAAAATAAAAAAAATTAAATAAATAAATATA [CACACA_negctrl_site45] | 9.06
AAAAAAAAAAAAAAAAAAAACGAAAAACATCAAAGA [TGCATGCA_negctrl_site78] | 9.4
TATCCTTATATTTGCACACACACACTAGAAAATGAA [CACACA_site4714] | 10
ACTAAAAAATATATATGTACATAATAATATATTATT [XGTACX_site1260] | 9.21
ATTTATACTTATGTATGTACATATATACATATGTAT [XGTACX_site3979] | 9.24
ATAATAAAATAACTAGTGCATATTCAAAGGATTCAG | 9.44
ATTTTTATTCAGTTCACACACGCTTTAATATTATAT [CACACA_site3465] | 9.77
ATATATATTTAACAATGTACTTATTCAGAGAATAAT [XGTACX_site574] | 8.99
AAAATATTTTTATAATGTACATATAGTTGTATTTGT [XGTACX_site8724] | 9.33
AAGTTGAAATAATGTGCACACATTTTTTTTTTTTTT [CACACA_site3368] | 9.25
CCCTTAATATAAAGCACACATATATATAATATATAT [CACACA_site4439] | 9.33
ATAATAAATAAAATAACACACATATATAAATATATA [CACACA_site170] | 9.65
ATTAATAAAAAATTTTAAAAAATAAATAAAATAAAA [TGCATGCA_negctrl_site113] | 8.83
GACACAAAAAAATAATAATAATAATAATAATAAATA [XGTACX_negctrl_site145] | 9.18
AATATAAATACTCCTACACACATATATATATATATA [CACACA_site3010] | 9.61
ACAAATACAAAAAAAGGTACACACATAATATATTTA [XGTACX_site5515] | 9.88
TTTGTTTTTAATTTCGCACACACCTTGTGGAAAAAA [CACACA_site577] | 9.26
AAATATTTTATACTTGCACACAAAATATATTAAAAT [CACACA_site8606] | 9.32
